Reference: article PMC4336329 (PLoS ONE, 2015)
In all, about 310,000 compounds went through this assay and about 14,000 (4.5%) showed an effect of 50% or more. The effect is printed as a negative number. This is one part of the list.

Each molecule was assayed against human ether-à-go-go-related gene (hERG) potassium channel (human, UniProt Q12809) (assay: primary screen, population patch clamp on CHO cells stably expressing hERG).
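Further: peak tail current of the secondary pulse compared with the same well before compound.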

Sequence of human ether-à-go-go-related gene (hERG) potassium channel (Q12809 whole entry, looked up): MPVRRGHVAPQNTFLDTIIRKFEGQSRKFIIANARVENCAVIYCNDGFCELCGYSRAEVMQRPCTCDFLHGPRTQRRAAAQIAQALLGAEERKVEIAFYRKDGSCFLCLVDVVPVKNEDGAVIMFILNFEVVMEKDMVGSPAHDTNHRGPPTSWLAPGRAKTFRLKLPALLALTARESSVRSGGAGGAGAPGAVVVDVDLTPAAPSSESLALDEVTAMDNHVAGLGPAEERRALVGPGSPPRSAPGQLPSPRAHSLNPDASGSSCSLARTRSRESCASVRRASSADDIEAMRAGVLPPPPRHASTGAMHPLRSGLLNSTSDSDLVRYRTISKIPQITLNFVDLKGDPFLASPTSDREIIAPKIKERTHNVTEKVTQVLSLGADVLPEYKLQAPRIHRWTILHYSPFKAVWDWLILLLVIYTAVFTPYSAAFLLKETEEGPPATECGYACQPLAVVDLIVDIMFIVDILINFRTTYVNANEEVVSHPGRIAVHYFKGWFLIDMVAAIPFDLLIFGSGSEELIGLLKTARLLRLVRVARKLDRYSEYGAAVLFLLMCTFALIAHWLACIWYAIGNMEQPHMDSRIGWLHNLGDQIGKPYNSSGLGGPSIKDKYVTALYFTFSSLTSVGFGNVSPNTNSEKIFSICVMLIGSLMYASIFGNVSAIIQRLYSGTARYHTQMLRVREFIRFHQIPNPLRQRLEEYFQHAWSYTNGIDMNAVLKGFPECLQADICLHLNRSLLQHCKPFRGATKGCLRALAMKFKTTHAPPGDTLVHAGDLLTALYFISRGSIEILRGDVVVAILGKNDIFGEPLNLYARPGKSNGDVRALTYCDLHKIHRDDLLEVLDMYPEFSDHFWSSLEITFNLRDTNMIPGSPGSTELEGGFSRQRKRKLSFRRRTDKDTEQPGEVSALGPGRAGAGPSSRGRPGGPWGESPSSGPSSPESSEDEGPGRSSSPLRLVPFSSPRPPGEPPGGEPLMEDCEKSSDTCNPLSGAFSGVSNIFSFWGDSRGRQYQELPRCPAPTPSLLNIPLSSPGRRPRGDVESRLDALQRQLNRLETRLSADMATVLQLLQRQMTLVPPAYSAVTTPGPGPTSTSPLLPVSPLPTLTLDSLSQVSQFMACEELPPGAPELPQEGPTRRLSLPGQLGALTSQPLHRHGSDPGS

Going from `CCOC(=O)C(=CNc1ccc(NC2=NCC(C)S2)cc1)C(=O)OCC` (stereo not drawn) to `CCOC(=O)Cc1csc(NC(=O)c2ccc(F)cc2)n1`, the “hERG current change (%, negative = inhibition) at 10uM” value falls from -10.7% to -11.3%.

Going from `Cc1cc(NC(=O)CSc2nnc3c(C)cc4cc(C)c(C)cc4n23)no1` to `CCn1c(SCC(=O)Nc2ccc3c(c2)OCO3)nnc1-c1ccccc1O`, the “hERG current change (%, negative = inhibition) at 10uM” value falls from 20% to 7.21%.

Compared with `COc1cccc(/C=N/n2cnc3ccccc32)c1OC`, `COc1ccc(Nc2ncnc3ccccc23)c(OC)c1.Cl` is lower in “hERG current change (%, negative = inhibition) at 10uM” value: 13.6% for the first, -10.2% for the second.

Going from `CC(C)c1ccc(NC(=O)C2CCCCC2C(=O)O)cc1` (stereo not drawn) to `O=C(Nc1ccccc1)[C@@H]1CC=C[C@@H]2CCN(Cc3ccccc3)C(=O)[C@@H]21`, the “hERG current change (%, negative = inhibition) at 10uM” value falls from 7.18% to -8.95%.

Compared with `CCCCCCn1c(COc2ccccc2F)nnc1SCC(=O)N1c2ccccc2NC(=O)C1(C)C`, `CCO[C@@H]1OC(C(=O)NCc2nc3ccccc3[nH]2)=C[C@H](c2coc3ccccc3c2=O)[C@H]1CCCO` is lower in “hERG current change (%, negative = inhibition) at 10uM” value: -6.49% for the first, -9.12% for the second.

First: COc1cc(CNCc2c[nH]c3ccccc23)cc(OC)c1
Second: COc1ccc(-c2cc(=O)c3c(O)c(OC)c(O)cc3o2)cc1
The “hERG current change (%, negative = inhibition) at 10uM” value of the first is higher: -4.58% for the first, -4.83% for the second.

First: CCOC(=O)c1cc(-c2ccc(N3CCOCC3)cc2)nn1-c1ccccc1C(=O)O
Second: CCOC(=O)c1ccc(NC(=O)C2(c3ccccc3)CCOCC2)cc1
The “hERG current change (%, negative = inhibition) at 10uM” value of the first is higher: 5.59% for the first, 0.462% for the second.

Going from `CC1CCN(C(=O)COc2cccc3c2CCN(Cc2ccccc2)C3=O)CC1` to `Cc1ccc(C)c(OCC(=O)N2CCN(Cc3ccc4c(c3)OCO4)CC2)c1`, the “hERG current change (%, negative = inhibition) at 10uM” value rises from -36% to -23.3%.

Compared with `CCC1(C)Cc2c(sc(NC(=O)CCC(=O)O)c2C#N)CO1` (stereo not drawn), `CCCn1c(SCC(=O)NCC)nc2sc3c(c2c1=O)CCC3` is lower in “hERG current change (%, negative = inhibition) at 10uM” value: 19.2% for the first, 0.894% for the second.

Going from `CN(CCOc1ccc(Cl)cc1)C(=O)C1CCN(C(=O)c2ccc(Cl)cc2)CC1` to `CN(c1ccccc1)S(=O)(=O)c1cccc(NC(=O)CCNC(=O)c2ccc(Cl)cc2)c1`, the “hERG current change (%, negative = inhibition) at 10uM” value rises from -75.4% to -19.6%.

Going from `CC1CN(c2ccc([N+](=O)[O-])c(NCCOc3ccccc3)c2)CCN1` (stereo not drawn) to `CC(C)NC(=O)c1ccc(CN2CCc3ccccc3C2)cc1`, the “hERG current change (%, negative = inhibition) at 10uM” value falls from -2.1% to -44.5%.

Compared with `CN(c1ccccc1)C(c1ccc(F)cc1)c1nnnn1C1CCCC1` (stereo not drawn), `O=C(Cn1cnc2c(nnn2Cc2ccccc2)c1=O)NCC1CCCO1` (stereo not drawn) is higher in “hERG current change (%, negative = inhibition) at 10uM” value: -17.1% for the first, 0.631% for the second.

Compared with `CC(=O)N/C(=C/c1ccc2c(c1)OCO2)C(=O)O`, `Cc1ccnc(NC(=O)C2CC(=O)N(c3ccc4c(c3)OCCO4)C2)c1` (stereo not drawn) is higher in “hERG current change (%, negative = inhibition) at 10uM” value: -2.32% for the first, 11.2% for the second.

Compared with `Nc1ccc2c(C(F)(F)F)cc(=O)oc2c1`, `CC1=NN(C(=O)c2ccc(Cn3nc(C)cc3C)o2)C(O)(C(F)(F)F)C1` (stereo not drawn) is lower in “hERG current change (%, negative = inhibition) at 10uM” value: 13.2% for the first, 5.71% for the second.

Going from `COc1ccc(Cl)cc1NC(=O)CNCc1cccs1.O=C(O)C(=O)O` to `COc1ccc(C(=O)NCCC(=O)NCc2cc(=O)n(C)c(=O)n2C)cc1`, the “hERG current change (%, negative = inhibition) at 10uM” value rises from -11.6% to 20.7%.

Going from `COc1ccccc1N1CCN(C(=O)c2cc3c(s2)-c2ccccc2OC3)CC1` to `Cc1ccc(CN2CCN(Cc3ccccc3)C(CCO)C2)s1` (stereo not drawn), the “hERG current change (%, negative = inhibition) at 10uM” value falls from 17.6% to -62.8%.

Compared with `CCOc1ccccc1NC(=S)NCCCn1ccnc1`, `C=CCn1c(NC(=O)c2ccc(C)cc2)nc2ccccc21` is lower in “hERG current change (%, negative = inhibition) at 10uM” value: 43.3% for the first, 6.35% for the second.

Compared with `C=CCC(CC=C)(C(N)=O)c1ccccc1`, `O=C(O)/C=C/c1ccc2ccccc2n1` is higher in “hERG current change (%, negative = inhibition) at 10uM” value: -2.73% for the first, 2.35% for the second.

First: Cc1ccc(SCCC(=O)NC(C)(C)C)cc1
Second: Cl.N=C(N)c1ccc(Cl)cc1
The “hERG current change (%, negative = inhibition) at 10uM” value of the first is lower: -2.99% for the first, 28.3% for the second.

Going from `O=C(CNC(=O)C(c1ccccc1)c1ccccc1)N/N=C\c1cccc(O)c1` to `Cc1ccc(S(=O)(=O)NN2C(=O)c3ccccc3NC2c2ccccc2)cc1` (stereo not drawn), the “hERG current change (%, negative = inhibition) at 10uM” value falls from 9.9% to -16.6%.

First: Cn1ncc([N+](=O)[O-])c1C(=O)Nc1cccc(Cl)c1
Second: O=C(Nc1cc(C(F)(F)F)cc(C(F)(F)F)c1)Nc1cnn(-c2ccc([N+](=O)[O-])cc2)c1C(F)(F)F
The “hERG current change (%, negative = inhibition) at 10uM” value of the first is higher: 9.55% for the first, 2.7% for the second.

Compared with `Cc1nn(-c2nc3ccccc3[nH]2)c(N)c1-c1ccc(Cl)cc1`, `S=c1[nH]c2ccccc2o1` is higher in “hERG current change (%, negative = inhibition) at 10uM” value: 6.92% for the first, 18% for the second.

First: COc1ccc(-c2noc(CCCC(=O)NCc3ccco3)n2)cc1OC
Second: COc1cc2c(cc1OC)CN(C(=O)Cc1ccc(OC)c(S(=O)(=O)N3CCOCC3)c1)CC2
The “hERG current change (%, negative = inhibition) at 10uM” value of the first is higher: 1.2% for the first, -3.56% for the second.

First: C[C@]12CC[C@H](O)C[C@@H]1CC[C@@H]1[C@@H]2CC[C@]2(C)C(=O)CC[C@@H]12
Second: CCN1C[C@]2(C)CC[C@H](O)[C@]34C1[C@H](C[C@H]23)[C@@]1(O)C[C@H](OC)[C@H]2C[C@@H]4[C@@H]1C2O (stereo partly drawn)
The “hERG current change (%, negative = inhibition) at 10uM” value of the first is lower: -58.3% for the first, 15.2% for the second.

First: Cn1c(=O)c2c(nc(Br)n2CCSc2ncccn2)n(C)c1=O
Second: Cc1c(CC(=O)O)c(=O)oc2c(C)c(OCc3nn[nH]n3)ccc12
The “hERG current change (%, negative = inhibition) at 10uM” value of the first is lower: -2.94% for the first, 19.2% for the second.

Compared with `CC1(C)CC2(CCO1)OC(=O)CC2C(=O)Nc1ccccc1Cl` (stereo not drawn), `O=S(=O)(c1ccccc1)N1CCOCC1` is higher in “hERG current change (%, negative = inhibition) at 10uM” value: 1.54% for the first, 1.77% for the second.

First: Fc1ccccc1C1CC(c2ccco2)=Nc2ccccc2S1 (stereo not drawn)
Second: COc1cccc(CN(CC2CCCO2)S(=O)(=O)c2ccc(-n3cnnn3)c(OC)c2)c1 (stereo not drawn)
The “hERG current change (%, negative = inhibition) at 10uM” value of the first is higher: 9.99% for the first, -28.1% for the second.

Going from `O=C(CCN1C(=O)C2C3C=CC(C3)C2C1=O)Nc1ccc(F)cc1` (stereo not drawn) to `CCC(=O)N1CCc2cc(S(=O)(=O)NC(CC(C)C)C(=O)N3CCc4ccccc43)ccc21` (stereo not drawn), the “hERG current change (%, negative = inhibition) at 10uM” value falls from -1.72% to -2.28%.

For `S=C(NC1CCCCC1)N1CCOCCOCCN(C(=S)NC2CCCCC2)CCOCC1`, the “hERG current change (%, negative = inhibition) at 10uM” value was -5.84%.
